PubChem BioAssay (NCI)
A structure can be active in one record and inactive in another.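 96-well plates, one dose, 48 hours. Percent growth reported; active if below 10.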 For part of its entries the source gives two or more results. Only these are listed. An entry can have further records. This drug was run again and again over the years, at the concentration stated with the values; each value is one run. Brackets with × count equal records among those shown.

Legend:
SK-MEL-28 melanoma = test: NCI-60 one-dose screen, 48 h (100 = growth as untreated, 0 = no growth, -100 = all killed)
EKVX NSCLC = test: as above; settings: 0.25 µM

Question: For `COc1cccc2c1C(=O)c1c(O)c3c(c(O)c1C2=O)C[C@@](O)(C(=O)CO)C[C@@H]3OC1CC(N)C(O)C(C)O1` (stereo not given in full), which growth (SK-MEL-28 melanoma; 0.25 µM, runs of 2022) is on record?
Answer: active: -36.2%, -27.9%, -54.5% and inactive: 43, 45.2, 46.9, 20, 50.4, 34.1, 50.8, 52.3, 53, 64.7, 55.3, 56.6, 62.9, 55.2, 48.9, 73.6, 90.8, 64.2, 85.8, 85.1, 90, 57, 60.9, 51.9, 59.4, 55.9%

Question: What about the growth (SK-MEL-28 melanoma; 25 µM, runs of 1991) of the same compound?
Answer: active: -96.5, -91.6, -85.2, -92.2 (2×), -98.4, -95.1, -90, -88, -89.6, -80.5, -86.2, -79.6, -96.6, -84.6, -66.7, -60.7, -87.6, -93.8%

Question: What about the growth (SK-MEL-28 melanoma; 25 µM, runs of 1992) of the same compound?
Answer: active: -100 (8×), -75.1, -91.8, -79, -68.6, -96.9 (3×), -99, -94, -86.1, -87.4, -73.8, -94.4 (2×), -91.5, -80.7, -79.4, -95.1, -98, -96.2 (4×), -94.6, -70.2, -95.3 (2×), -90.1 (2×), -77.5, -84.7, -79.3, -79.2, -83.5, -77.6, -80.1, -81.2, -97.8, -97.9 (2×), -99.6 (2×), -99.5 (3×), -89.3, -93.2, -97.3, -98.3, -85.6, -91.4, -93.1, -82.9, -48.1, -95.9, -97.6 (2×), -97.7, -96.5 (3×), -95.5, -92.5, -84.2, -88.4, -87.6, -60.7, -99.4, -93.5 (2×), -98.1, -99.1, -96.1, -89.1, -77.3, -34.2, -65.1, -71.2, -96.6, -98.6, -81.8, -95.6, -92.4, -91.1, -46.9, -61.5, -53.5, -86.6, -89.7, -99.2, -97.5, -97, -69.7, -69.1, -93, -82, -51, -87.8, -56.6, -76.3, -95.8, -67.5, 2.75, -75.3, -71.4, -57.2, -62, -77, -65.8, -44.1%

Question: What about the growth (SK-MEL-28 melanoma; 25 µM, runs of 1993) of the same compound?
Answer: active: -82.1, -93.8, -54.3, -18.5, -26, -96.7, -58.4, -67.1, -63, -61.9, -100 (2×), -97.9, -88.8, -85, -95.4, -47.4, -64.1, -57.8, -36.7, -40.4, -88.2, -60.7, -72.6, -78, -45.8, -80.2, -69.8, -83, -60.5, -72.2, -88.1, -80.7, -74.2, -54.5, -96.1, -71.4, -52, -99.7, -86.9, -84.2, -94.6, -80.8, -98.2, -97, -91, -98.8, -69.9, -94.4, -97.7%

Question: And the growth (SK-MEL-28 melanoma; 25 µM, runs of 1994)?
Answer: active: -86.2, -94.8, -87.1, -93, -100 (2×), -73.4, -90 (2×), -66.4, -83.3, -48.6, -96.5, -84.9 (2×), -98.7, -97.9, -66, -74.2, -91.2, -84.5, -98.6, -89.1, -32.8, -81.5, -93.7, -65.9, -73.9, -80.7, -84.6, -63.4% and inactive: 84.2%, 102%

Question: What about the growth (SK-MEL-28 melanoma; 25 µM, runs of 1995) of the same compound?
Answer: active: -23.6, -67.7 (2×), -99.6, -77.7 (2×), -99.8, -89.7, -76.8, -1.26, -93.4, -95.8, -80.8, -90.9, -100 (2×), -54.4, -74.2, -98.6, -94.8, -78.3, -97.4, -79.8 (2×), 2.19, -49.2, -87.3, -68.4, -91, -42.7, -97.5, -98, -70.1, -92.5%

Question: What about the growth (SK-MEL-28 melanoma; 25 µM, runs of 1996) of the same compound?
Answer: active: -79, -77.5, -9.31, -37.4, -82.2, -77.1, -95.5, -67.9, -100, -78.2, -87.1, -88.7, -76.8, -75.8, -83.1, -88.9, -97.6, -81.8, -76.1, -84.7, -52, -93.3, -56.9, -42.6, -90.3 (2×), -67.7, -54.3, -38.9, -56, -57.6, -64.1, -74, -74.1, -41, -37.9, -60.3, -92.9, -56.1, -55.5, -82.1% and inactive: 60.2%, 12.6%

Question: What about the growth (SK-MEL-28 melanoma; 25 µM, runs of 1997) of the same compound?
Answer: active: -81.7, -28, -56.1, -26.8, -32.2, -26.7, -75.6, -31.9, -98.7, -82.9, -48, -83.3, -78, -49.7, -90.5, -77.1, -48.7, -94.4, -71.5, -30.2, -44.4, -85, -94.7, -92.9, -64.6, -90.6, -73, -94.8, -74.8, -75.9, -87.9, -100, -99.3, -95, -55.4, -75.5, -98.2, -93.4, -65.6, -81.1, -82.4, -79%

Question: What about the growth (SK-MEL-28 melanoma; 25 µM, runs of 1998) of the same compound?
Answer: active: -83.2, -84.9, -97.2, -45, -94.9, -29.4, -71.3, -64.2, -85, -92.7, -41.5, -56.6, -63.3, -65.2, 1.63, -90.6, -62.3, -75.3, -78.8, -57, -22, -78.1, -73.8% and inactive: 14.5%

Question: And the growth (SK-MEL-28 melanoma; 25 µM, runs of 1999)?
Answer: active: -84.9, -54.5, -70.8, -83.9, -100, -42.1, 1.95, 0.622, -7.16, 7.08, 1.59% and inactive: 13.9%, 12.4%

Question: What about the growth (SK-MEL-28 melanoma; 25 µM, runs of 2000) of the same compound?
Answer: active: 5.52, -100, -53, -85.2%

Question: What about the growth (EKVX NSCLC; runs of 2006) of the same compound?
Answer: inactive: 66.6%, 73.2%

Question: And the growth (EKVX NSCLC; runs of 2007)?
Answer: inactive: 74.3, 82.4, 70.1, 63.4, 83.1, 68.2, 71.4, 84.3, 90.4, 86.3, 77, 105, 96.8, 71.1, 97.7 (2×), 98.4, 94.7 (2×), 96.5, 102, 97.4, 107, 109, 104, 106, 93.9, 43.5, 94, 88.8, 92.6, 84.7, 100, 65.6, 87.5, 70, 90.1, 74.8, 90.3, 78, 82.8, 82.5%

Question: What about the growth (EKVX NSCLC; runs of 2008) of the same compound?
Answer: inactive: 40.5, 50.1, 84.4, 72, 86.8, 79.7, 79.6, 86, 76.1, 81.4 (2×), 85.8, 87.3, 68.9, 71.6, 77.9, 63.8 (3×), 64.5 (2×), 60.7, 69.2 (2×), 74, 93.4, 72.5, 45.2, 74.8, 60.6, 62.6, 72.2, 71.8, 63.2, 53.1, 55, 81.2, 92.6, 70.9, 77.4, 81.9, 96.4, 60.5, 65.6, 79, 74.2, 63.5%

Question: And the growth (EKVX NSCLC; runs of 2009)?
Answer: inactive: 58.9, 66.2 (3×), 59.8, 68.2, 72.9, 68.6, 74.9, 74 (2×), 75.5, 67.9, 55.7 (2×), 62.6, 58.1, 56.6, 65.6, 66.3 (2×), 62.1, 72, 63.2, 69.6, 85.5, 73.6, 82.9, 75.6, 74.3, 80.6, 70.3, 72.3 (2×), 98.3, 83.2, 72.1, 69.8, 77, 69.4, 60.9, 78.1 (2×), 85.8 (2×), 94.1, 95.3, 81.9, 83.7, 83, 77.7 (2×), 69.1, 86.3, 74.2, 60, 82.8, 98.5, 71.7, 62.5, 81.5, 65, 72.7, 86.4, 89, 90.9, 86.5%
